{"source": "PubChem BioAssay AID488969", "about": "(Vanderbilt High Throughput Screening Facility, 2010)", "note": "Whole data set: some 110,000 compounds, median “z-score” near -0.1, cut for the highest 2% near 2. This is one part of the list. The source made the active and inactive calls.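 How the source made its calls: active means z-score in the third read window above 3 or below -3; inactive means the rest.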", "data": [{"molecular_target": "Metabotropic glutamate receptor 8 (Rattus norvegicus) (UniProt P70579)", "sequence (P70579 whole entry, looked up)": "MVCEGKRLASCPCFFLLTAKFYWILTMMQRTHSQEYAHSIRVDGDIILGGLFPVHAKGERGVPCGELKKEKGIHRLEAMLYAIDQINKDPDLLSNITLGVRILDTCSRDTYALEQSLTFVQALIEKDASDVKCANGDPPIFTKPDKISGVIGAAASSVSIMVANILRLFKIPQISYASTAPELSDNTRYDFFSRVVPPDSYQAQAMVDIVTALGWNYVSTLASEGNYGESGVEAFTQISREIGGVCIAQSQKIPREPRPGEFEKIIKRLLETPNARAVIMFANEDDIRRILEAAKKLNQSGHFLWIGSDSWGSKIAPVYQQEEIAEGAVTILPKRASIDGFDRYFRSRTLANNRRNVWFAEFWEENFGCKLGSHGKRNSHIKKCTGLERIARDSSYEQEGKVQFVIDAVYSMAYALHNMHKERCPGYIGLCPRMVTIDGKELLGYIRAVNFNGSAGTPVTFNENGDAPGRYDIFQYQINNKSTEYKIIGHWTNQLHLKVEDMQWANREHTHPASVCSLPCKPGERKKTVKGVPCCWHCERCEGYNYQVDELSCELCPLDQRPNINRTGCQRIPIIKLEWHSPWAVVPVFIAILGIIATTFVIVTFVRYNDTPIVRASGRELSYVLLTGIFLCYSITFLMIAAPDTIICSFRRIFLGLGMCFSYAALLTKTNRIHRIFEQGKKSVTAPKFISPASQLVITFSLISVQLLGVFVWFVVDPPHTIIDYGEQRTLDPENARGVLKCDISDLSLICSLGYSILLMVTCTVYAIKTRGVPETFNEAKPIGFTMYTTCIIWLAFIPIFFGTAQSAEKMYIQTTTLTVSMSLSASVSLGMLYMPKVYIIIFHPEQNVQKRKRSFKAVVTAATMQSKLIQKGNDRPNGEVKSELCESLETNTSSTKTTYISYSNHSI", "experiment": "mGluR8 Gi/Go-coupled signaling modulation – cell-based, rat, thallium flux, HTS, primary screen (AID 488969)", "details": "HEK293 rat mGluR8, GIRK (G protein-gated inwardly rectifying potassium channel) thallium flux, FluoZin2; at 10 µM; stronger effect = higher value; submaximal glutamate (EC20) added with thallium", "values": [{"molecule": "COc1ccc(N/C=C\\C(=O)c2ccc(Br)cc2)cc1OC", "z-score": -0.129}, {"molecule": "O=C(/C=C/Nc1ccc(S(=O)(=O)Nc2ncccn2)cc1)c1ccc(Cl)c(Cl)c1", "z-score": 0.437}, {"molecule": "COc1ccc2[nH]c3c(NCCN(C(C)C)C(C)C)ncnc3c2c1", "z-score": 1.14}, {"molecule": "COc1ccc(S(=O)(=O)Nc2cc(C)cc(C)n2)c2ccccc12", "z-score": 0.0461}, {"molecule": "COc1ccc(-c2cc(C(N)=O)nc(N3CCCCCC3)n2)cc1", "z-score": -0.488}, {"molecule": "O=C(c1cnn2c(C(F)F)cc(C3CC3)nc12)N1CCCC1", "z-score": -0.417}, {"molecule": "COc1ccc(NC(=O)CN(c2cc(C)cc(C)c2)S(=O)(=O)c2c(C)noc2C)cc1", "z-score": -0.52}, {"molecule": "CC(C)N(C(=O)CN(C#N)c1nc(N(C)C)nc(N(C)C)n1)c1ccccc1", "z-score": "active: -4.1"}, {"molecule": "OC1(c2ccc(OC(F)F)cc2)CSC(=Nc2cccnc2)N1C1CC1", "note": "(configuration not stated)", "z-score": -0.02}, {"molecule": "c1ccc(Nc2nc(N3CCNCC3)nc(N3CCOCC3)n2)cc1", "z-score": 1.01}, {"molecule": "Cc1cccc(C(c2c(C)nn(-c3ccccc3)c2N)c2c(C)nn(-c3ccccc3)c2N)c1", "z-score": 0.343}, {"molecule": "Cc1ccc(N(C(=O)c2sc(C)nc2C)C(C(=O)NCc2ccco2)c2ccccc2)cc1", "note": "(configuration not stated)", "z-score": -2.09}, {"molecule": "Cc1sc(NC(=O)/C=C/c2ccc(C(C)C)cc2)c(C#N)c1C", "z-score": 0.146}, {"molecule": "CC(=O)NC(Cc1ccccc1)C(=O)NC1CCN(C(=O)c2cnccn2)CC1", "note": "(configuration not stated)", "z-score": -0.219}, {"molecule": "O=C(Cn1c(-c2ccccc2)noc1=O)NCc1ccccc1", "z-score": 1.22}, {"molecule": "CC(NC(=O)Nc1cccc([N+](=O)[O-])c1)(C(F)(F)F)C(F)(F)F", "z-score": 1.21}, {"molecule": "COc1ccc2nc(Nc3nc(CSc4nnnn4-c4ccccc4)cc(=O)[nH]3)nc(C)c2c1", "z-score": -0.0342}, {"molecule": "CCOc1ccc(-c2c(C)n([O-])c3c([n+]2=O)CCCC3)cc1", "z-score": -0.094}, {"molecule": "CC1CCc2cc(F)ccc2N1C(=O)CN1C(=O)c2ccccc2C1=O", "note": "(configuration not stated)", "z-score": 0.499}, {"molecule": "CCC1CCc2c(sc(NC(=O)CSc3nc(-c4ccco4)cc(C(F)(F)F)n3)c2C#N)C1", "note": "(configuration not stated)", "z-score": -0.169}, {"molecule": "CC(C(=O)Nc1cc(C(F)(F)F)ccc1N1CCOCC1)N1C(=O)C2CC=CCC2C1=O", "note": "(configuration not stated)", "z-score": 0.0554}, {"molecule": "Cc1ccc(-c2nc(SCC(=O)Nc3cc(S(=O)(=O)N4CCCCC4)ccc3Cl)n[nH]2)cc1", "z-score": 0.396}, {"molecule": "COc1cc(-c2nnc(SCC(=O)c3cc(C)n(CC4CCCO4)c3C)o2)cc(OC)c1OC", "note": "(configuration not stated)", "z-score": -0.503}, {"molecule": "CCOc1cc(C2NC(=O)NC(C)=C2C(=O)OCc2ccccc2)ccc1O", "note": "(configuration not stated)", "z-score": 0.913}, {"molecule": "Cc1c(C(=O)Nc2ccc(OC(F)(F)F)cc2)sc2nc3n(c(=O)c12)CCC3", "z-score": 0.431}, {"molecule": "Cc1ccc(/C=N/N=C2/NC(=O)C(CC(=O)Nc3ccc(Cl)cc3)S2)o1", "note": "(configuration not stated)", "z-score": 0.014}, {"molecule": "O=C(Oc1ccccc1/C=C\\C(=O)c1cc2ccccc2o1)c1ccccc1", "z-score": -0.109}]}]}
